The values below come from the supplement of paper PMC9446081.

Among all 39,000 compounds or so, about 220 (0.56%) showed activity. The list shows a part of the results.
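Also: static incubation at 37 °C against the wild-type strain, values averaged over two biological replicates.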

In the test the test system is Escherichia coli K-12 BW25113. The test is described as follows: relative growth (OD600 normalised to plate interquartile mean) (fraction); higher = less growth inhibition, active = 0.2 or less. The following applies: 50 µM; LB; incubation time: overnight (16-24 h).
Take `C[C@H]1CN([C@@H](C)CO)C(=O)c2cc(C#CC3CC3)cnc2O[C@@H]1CN(C)S(=O)(=O)c1cccc(F)c1`: the relative growth was inactive: 1.04. The value for `CSc1cccc2sc(Nc3ccc(Cl)cc3)nc12` was inactive: 0.908; that for `C[C@@H]1CN([C@H](C)CO)C(=O)c2cc(C#CC3(O)CCCC3)cnc2O[C@H]1CN(C)S(=O)(=O)c1ccccc1` was inactive: 1.03; that for `Cc1nnc(NCCc2ccccc2)n(N)c1=O` was inactive: 0.998. The value for `COc1ccc(S(=O)(=O)N(C)C[C@H]2OCCCC[C@H](C)Oc3ccc(NC(=O)C4CCCCC4)cc3C(=O)N([C@H](C)CO)C[C@H]2C)cc1` was inactive: 1.04; that for `C[C@H](CO)N1C[C@H](C)[C@@H](CN(C)C(=O)C2CCC2)Oc2cc(C#Cc3ccncc3)ccc2S1(=O)=O` was inactive: 1.01. Turning to `C[C@H](CO)N1C[C@H](C)[C@H](CN(C)S(C)(=O)=O)Oc2ccc(NC(=O)CCCN(C)C)cc2CC1=O`, the relative growth was inactive: 0.992. The value for `C[C@H](CO)N1C[C@H](C)[C@H](CN(C)C(=O)Nc2cccc3ccccc23)Oc2ccc(NC(=O)CCC(F)(F)F)cc2C1=O` was inactive: 0.98; that for `C[C@H]1CN([C@@H](C)CO)C(=O)c2cccc(NC(=O)c3ccncc3)c2O[C@H]1CN(C)Cc1ccc(Oc2ccccc2)cc1` was inactive: 1.01; that for `O=C(Nc1ccc2c(c1)[C@@H]1C[C@H](CC(=O)N3CCc4ccccc4C3)O[C@@H](CO)[C@@H]1O2)C1CCOCC1` was inactive: 0.984.

On to `O=C(C[C@@H]1CC[C@@H]2[C@H](COC[C@@H](O)CN2S(=O)(=O)c2cccc(Cl)c2)O1)NCc1ccc2c(c1)OCO2`, for which the relative growth is inactive: 1.03. `COCC(=O)N(C)C[C@H]1Oc2cc(C#Cc3ccccc3)ccc2S(=O)(=O)N([C@@H](C)CO)C[C@H]1C`: the relative growth is inactive: 1. In the case of `O=C(C[C@@H]1C[C@H]2c3cc(NS(=O)(=O)c4ccc(F)cc4)ccc3O[C@H]2[C@@H](CO)O1)NCc1ccncc1`, the relative growth is inactive: 1.01. The value for `COc1ccc(NC(=O)Nc2ccc3c(c2)C(=O)N([C@H](C)CO)C[C@@H](C)[C@@H](CN(C)C(=O)NC(C)C)OCCCC[C@H](C)O3)cc1` was inactive: 0.999. With `Cc1ccc(S(=O)(=O)Nc2ccc3c(c2)C(=O)N([C@H](C)CO)C[C@H](C)[C@H](CN(C)S(=O)(=O)c2ccc(Cl)cc2)OCCCC[C@H](C)O3)cc1`, the relative growth was inactive: 1.01.

Regarding `C[C@@H]1CCCCO[C@H](CN(C)C(=O)Nc2ccc(C(F)(F)F)cc2)[C@@H](C)CN([C@@H](C)CO)C(=O)c2cc(NC(=O)Nc3ccc(C(F)(F)F)cc3)ccc2O1`, the relative growth is inactive: 0.989.

`C[C@@H]1CCCCO[C@@H](CN(C)Cc2ccc(C(=O)O)cc2)[C@H](C)CN([C@@H](C)CO)C(=O)c2cc(NC(=O)Nc3ccc(C(F)(F)F)cc3)ccc2O1`: the relative growth is inactive: 0.865. As for `O=C1Sc2cccc3cccc1c23`, the figure is inactive: 0.99; as for `CC(=O)O[C@@H]1C[C@H]2[C@@]3(C)CC[C@@H](OC(=O)CC(=O)O)C(C)(C)[C@@H]3CC[C@@]2(C)[C@]2(C)CC[C@](O)([C@]3(C)CC[C@H](C(C)(C)O)O3)[C@@H]12`, inactive: 0.955.

For `Cc1noc(C)c1NC(=O)N(C)C[C@H]1OCCCC[C@H](C)Oc2ccc(NC(=O)Nc3ccc(F)cc3)cc2C(=O)N([C@@H](C)CO)C[C@@H]1C`, the relative growth is inactive: 0.987. As for `C[C@@H]1CN([C@@H](C)CO)C(=O)c2cc(NC(=O)Nc3ccc(F)cc3)ccc2O[C@@H](C)CCCCO[C@@H]1CN(C)S(=O)(=O)c1ccc(Cl)cc1`, the figure is inactive: 1.04; as for `NCc1ccc(C(=O)O)cc1`, inactive: 1.02. For the compound `C[C@H](CO)N1C[C@H](C)[C@H](CN(C)C(=O)C2CCCCC2)OCCCC[C@H](C)Oc2ccc(NC(=O)CCC(F)(F)F)cc2C1=O`, the relative growth is inactive: 0.991.

For `C[C@@H]1CN([C@@H](C)CO)S(=O)(=O)c2ccc(C#Cc3ccc(F)cc3)cc2O[C@@H]1CN(C)CC1CC1`, the relative growth was inactive: 0.979. As to `C[C@@H]1CCCCO[C@H](CN(C)S(=O)(=O)c2cccs2)[C@H](C)CN([C@@H](C)CO)C(=O)c2cc(NS(C)(=O)=O)ccc2O1`, the relative growth is inactive: 1.02. As for `C[C@@H]1CN([C@H](C)CO)C(=O)Cc2cc(NC(=O)Nc3ccccc3)ccc2O[C@@H]1CN(C)S(=O)(=O)c1cn(C)cn1`, the figure is inactive: 0.991; as for `COc1ccccc1-c1ccc2c(c1)O[C@H](CN(C)S(=O)(=O)c1ccccc1)[C@H](C)CN([C@@H](C)CO)S2(=O)=O`, inactive: 1.01. As for `CC(C=CC=C(C)C=CC1=C(C)CCCC1(C)C)=CC=CC=C(C)C=CC=C(C)C=CC1=C(C)CCCC1(C)C` [beta-CAROTENE [2mM]], the figure is inactive: 0.986; as for `CCOC(=O)N1CCN([C@H](c2ccc(OC)cc2)c2cc(CC)sc2NC(=O)c2ccccc2)CC1`, inactive: 1.02. As for `COc1ccc(S(=O)(=O)N(C)C[C@H]2Oc3cc(C4=CCCC4)ccc3S(=O)(=O)N([C@@H](C)CO)C[C@@H]2C)cc1`, the figure is inactive: 1.02; as for `O=C(NO)c1cccc(C(=O)N/N=C/[C@H](O)[C@@H](O)[C@H](O[C@@H]2O[C@H](CO)[C@H](O)[C@H](O)[C@H]2O)[C@H](O)CO)c1`, inactive: 0.987; as for `COc1cc2c(c3ccccc13)OC(C)(C)C=C2`, inactive: 0.89. Turning to `CC(C)NC(=O)Nc1ccc2c(c1)CC(=O)N([C@H](C)CO)C[C@@H](C)[C@@H](CN(C)S(=O)(=O)c1ccc(Cl)cc1)O2`, the relative growth was inactive: 1.

With `CCNC1CC(C)S(=O)(=O)c2sc(S(N)(=O)=O)cc21.Cl` (stereo not given), the relative growth is inactive: 1.11. The value for `Cc1noc(C)c1S(=O)(=O)N(C)C[C@H]1Oc2ccc(NC(=O)Nc3ccccc3)cc2C(=O)N([C@H](C)CO)C[C@@H]1C` was inactive: 0.967; that for `C[C@@H]1CN([C@@H](C)CO)S(=O)(=O)c2ccc(C#CC3CCCC3)cc2O[C@@H]1CN(C)Cc1cncnc1` was inactive: 1; that for `O=C(C[C@@H]1CC[C@@H]2[C@H](COC[C@H](O)CN2S(=O)(=O)c2ccc(Cl)cc2)O1)NCCN1CCCC1` was inactive: 0.991.

As for `COc1ccc(S(=O)(=O)Nc2cccc3c2O[C@H](CN(C)S(=O)(=O)c2ccc(OC)cc2)[C@@H](C)CN([C@@H](C)CO)C3=O)cc1`, the relative growth was inactive: 1.02. As for `COCC#Cc1cnc2c(c1)C(=O)N([C@@H](C)CO)C[C@@H](C)[C@H](CN(C)C(=O)Nc1cc(F)ccc1F)O2`, the figure is inactive: 1.01. As for `C[C@H](CO)N1C[C@H](C)[C@H](CN(C)S(=O)(=O)c2cn(C)cn2)Oc2ccc(NS(C)(=O)=O)cc2C1=O`, the figure is inactive: 1; as for `C[C@@H]1CCCCO[C@H](CN(C)C(=O)Nc2ccccc2)[C@H](C)CN([C@H](C)CO)C(=O)c2cc(NC(=O)CCC(F)(F)F)ccc2O1`, inactive: 0.999.

Regarding `C[C@H](CO)N1C[C@H](C)[C@H](CN(C)S(=O)(=O)c2cn(C)cn2)Oc2ncc(C3=CCCC3)cc2C1=O`, the relative growth is inactive: 1.03. The value for `C[C@@H]1CCCCO[C@H](CN(C)Cc2ccc(C(=O)O)cc2)[C@H](C)CN([C@H](C)CO)C(=O)c2cc(NC(=O)Nc3ccc(C(F)(F)F)cc3)ccc2O1` was inactive: 0.939; that for `Cc1noc(C)c1NC(=O)Nc1ccc2c(c1)CC(=O)N([C@H](C)CO)C[C@@H](C)[C@@H](CN(C)C(=O)NC(C)C)O2` was inactive: 0.965.

For the compound `CN(C)c1ccc(NC(=O)CN)cc1`, the relative growth is inactive: 0.968. For `COc1ccc(CNC(=O)N(C)C[C@@H]2OCc3ccccc3-c3c(n(C)c4ccccc34)C(=O)N([C@H](C)CO)C[C@H]2C)cc1`, the relative growth was inactive: 1.01.

On to `COc1ccc(CN(C)C[C@@H]2Oc3c(NC(=O)c4ccc(-c5nccs5)cc4)cccc3C(=O)N([C@H](C)CO)C[C@H]2C)cc1`, for which the relative growth is inactive: 1.03.

For the compound `C[C@@H]1CCCCO[C@@H](CN(C)C(=O)Nc2ccc(C(F)(F)F)cc2)[C@H](C)CN([C@H](C)CO)C(=O)c2cc(NC(=O)C3CCCCC3)ccc2O1`, the relative growth was inactive: 1.02. As to `C[C@@H]1CN([C@H](C)CO)C(=O)Cc2cc(NC(=O)Nc3ccccc3)ccc2O[C@@H]1CN(C)Cc1ccc(C(F)(F)F)cc1`, the relative growth is inactive: 1.06. Turning to `NCC[C@H]1CC[C@H](NC(=O)C2CCC2)[C@@H](CO)O1`, the relative growth was inactive: 0.993. The value for `C[C@@H]1CN([C@@H](C)CO)C(=O)Cc2cc(NC(=O)Nc3ccc4c(c3)OCO4)ccc2O[C@@H]1CN(C)C(=O)Nc1ccc(C(F)(F)F)cc1` was inactive: 0.99; that for `Cc1cc(C(=O)Nc2cccc3c2O[C@@H](CN(C)C(=O)Nc2ccccc2)[C@@H](C)CN([C@H](C)CO)C3=O)n(C)n1` was inactive: 0.974. The value for `C[C@@H]1CN([C@H](C)CO)C(=O)c2cc(NS(=O)(=O)c3ccccc3)ccc2O[C@@H](C)CCCCO[C@H]1CN(C)Cc1ccc(Cl)c(Cl)c1` was inactive: 0.964. Consider `C[C@@H]1CN([C@@H](C)CO)C(=O)c2cc(NC(=O)CCCN(C)C)ccc2O[C@H]1CN(C)Cc1ccc(C(=O)O)cc1`, for which the relative growth was inactive: 0.978. Regarding `CCN(CC)C[C@@H](O)CN`, the relative growth is inactive: 0.976.

With `COc1ccc(S(=O)(=O)N(C)C[C@@H]2Oc3ncc(-c4ccc(F)cc4)cc3C(=O)N([C@H](C)CO)C[C@@H]2C)cc1`, the relative growth was inactive: 0.96.

Take `C[C@@H]1CN([C@@H](C)CO)C(=O)c2cc(NC(=O)NC3CCCCC3)ccc2O[C@@H]1CN(C)S(C)(=O)=O`: the relative growth was inactive: 0.999. As for `Nc1nc2nn[nH]c2c(=O)[nH]1`, the figure is inactive: 1.02. `COCC#Cc1cnc2c(c1)C(=O)N([C@H](C)CO)C[C@H](C)[C@H](CN(C)S(=O)(=O)c1ccccc1)O2`: the relative growth is inactive: 1.01. The value for `C[C@@H]1CN([C@@H](C)CO)C(=O)Cc2cc(NC(=O)C3CC3)ccc2O[C@H]1CN(C)Cc1ccc2c(c1)OCO2` was inactive: 0.971.
